{"source": "the supplement of paper PMC8728848", "binders": {"B1": {"name": "Cohesin-hDCIR (Homo sapiens) (protein)", "chain": "LDDLDAVRIKVDTVNAKPGDTVRIPVRFSGIPSKGIANCDFVYSYDPNVLEIIEIEPGDIIVDPNPDKSFDTAVYPDRKIIVFLFAEDSGTGAYAITKDGVFATIVAKVKEGAPNGLSVIKFVEVGGFANNDLVEQKTQFFDGGANVGDTTEPATPTTPVTTPTTTDDLDAASQKYSQLLEKKTTKELVHTTLECVKKNMPVEETAWSCCPKNWKSFSSNCYFISTESASWQDSEKDCARMEAHLLVINTQEEQDFIFQNLQEESAYFVGLSDPEGQRHWQWVDQTPYNESSTFWHPREPSDPNERCVVLNFRKSPKRWGWNDVNCLGPQRSVCEMMKIHLHHHHHH"}}, "key": {"[1]": {"target": "Neu5Gc(a2-8)Neu5Gc(a2-6)Gal(b1-4)GlcNAc", "assay": "glycan array binding signal (z-score within array); higher = stronger binding", "details": "glycan notation: IUPAC condensed, linker removed", "summary_of_the_method": "(§1)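 Glycan array data came from 3228 arrays in the Consortium for Functional Glycomics database, and only arrays with an available protein sequence were kept. Glycan names were put into IUPAC-condensed notation, and columns mapping to the same glycan were averaged. The binding signal is a within-array Z-score, averaged across arrays of one protein sequence run at different concentrations or buffers and across linkers. A negative Z-score can be read as non-binding.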"}, "[2]": {"target": "Neu5Gc(b2-6)Gal(b1-4)GlcNAc", "assay": "glycan array binding signal (z-score within array); higher = stronger binding", "details": "glycan notation: IUPAC condensed, linker removed", "summary_of_the_method": "as §1"}}, "note": "Some of the results follow.", "data": [{"binder": "B1", "values": [{"measurement": "glycan array binding signal (z-score)", "setting": "[1]", "result": -0.56}, {"measurement": "glycan array binding signal (z-score)", "setting": "[2]", "result": -0.457}]}]}
